# Measured values reported in PubChem BioAssay (NCI).
# The source holds several records for some structures; these can differ, active in one and inactive in another.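 Activity criterion: percent growth below 10, measured after cells in 96-well plates were exposed to a single compound concentration for 48 hours.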 A number of entries come with more than one value. This is not the full list of results. The source may hold further records. These are repeated runs of one drug, at its own concentration, as given; one value stands for one run. Signs of the kind (2×) say how often a value occurs here.
# Tested on: SF-295 CNS
# Experiment: NCI-60 one-dose screen, 48 h (100 = growth as untreated, 0 = no growth, -100 = all killed)
smiles,measurement,setting,value
COc1cccc2c1C(=O)c1c(O)c3c(c(O)c1C2=O)C[C@@](O)(C(=O)CO)C[C@@H]3OC1CC(N)C(O)C(C)O1 (stereo not given in full),growth,"0.25 µM, runs of 2018","inactive: 26.9, 25.6, 36.9 (3×), 17.9, 21.1, 27.7, 22.4, 23.8, 30.8 (2×), 30.5 (2×), 35.9, 34, 35.6, 34.7 (2×), 33.7, 25.5, 31.7, 18, 23.7, 26, 35, 33, 25.7, 29.9, 28.2, 55, 52.9, 24.8 (2×), 27.4, 31, 37.3, 37.1 (2×), 34.6, 41.1, 38.6, 19.6, 16.9, 21.4, 21.7, 26.7, 32.4, 30.2, 38.2, 35.7, 40.5, 45.6, 49.5, 10.7, 27.9%"
same,growth,"0.25 µM, runs of 2019","inactive: 19.6 (3×), 21.7 (3×), 30.2, 13.2, 17.3 (2×), 21.6 (2×), 17.1, 20.4, 20.9, 23.9, 23, 23.6 (2×), 20.5, 12.6, 15.6, 12.4, 19.4, 20.8 (2×), 15.1, 13.1, 19.1 (2×), 28.2, 19, 16.8, 23.4, 23.7, 27, 23.5, 20.2, 23.3, 25.4, 21.1, 12.9, 12.3% and active: 5.84%"
same,growth,"0.25 µM, runs of 2020","inactive: 13.4, 15.3, 18.6, 19, 42.9, 21.3, 32 (2×), 19.1, 11.5, 18.5, 22.3, 28.2, 32.4, 46.1, 28.3, 29.6, 26.5, 25, 30.8, 24.8, 30%"
same,growth,"0.25 µM, runs of 2021","inactive: 29.9, 43.6, 31.8, 27.9, 27.4, 23.3, 27.5, 17.8, 17.1, 17.7, 22.4, 21.4 (2×), 26.4 (2×), 16.6, 14.5 (2×), 19.5 (2×), 18.9, 23.4, 20.3, 22.7, 19.4, 22.3, 29.6, 32 (2×), 24.8 (2×), 17.9 (2×), 27, 18.4, 34.3, 29.8, 26, 23.7, 20.5, 25.7, 14.8, 21.2, 11.1, 32.8, 45.7, 11.3, 10.2, 24.5, 21.3, 20.4%"
same,growth,"0.25 µM, runs of 2022","active: 2.13, 1.99, -4.12, 9.46, 8.18, 7.81% and inactive: 15.4, 10.7, 14.1, 15.7, 27.3, 36.5, 13, 19.5, 21.1, 19, 22.8, 10.2, 52.4, 55, 26, 51.6, 52, 85.4, 23.7, 26.9, 27.7, 22%"
same,growth,"25 µM, runs of 1991","active: -88.8, -98.2, -59.3, -73.4, -94.6, -94.8, -40.8, -24.5, -39.4, -100, -91.8, -35.8, -35.4, -33.8, -43.5, -55, -44.5, -44.7, -44.4%"
same,growth,"25 µM, runs of 1992","active: -49.9, -47.8, -43.6, 4.07, -46.2, -57, -40.5, -59.5, -68, -38.8 (2×), -35.6, -39.1, -13.9, -25.2, -52.8, -57.9, -63.3, -71.2, -67.5, -59.7 (2×), -10.5, -56.8, -44.4, -35.2, -62.1, -21.1, -28.8, -76.6, -47.7, -41.4, -55.1, -49, -46.4, -37.9, -21, -61.4, -59.1 (2×), -78, -45.8, -21.2, -24.4, -25, -18.8, -16.3, -33.7, -23.5, -3.12, -19.7, -25.3, -64.4, -50.4, -12.4, -28, -13.4, -30.6, -24.3, -24.6, -63.1 (2×), -72.6, -78.3, -81.7, -87.6, -36.4, -1.4, -23.7, -27.4, -40.2, -28.2, -41.7, -41.1, -57.2, -52.3, -48.8 (2×), -51.5, -47.4, -51.8, -54.5, -31.7, -46.5, -66.4, -65.7, -59.8 (2×), -50.3, -81.4, -15.4, -36, -38.4, -25.6, -51.4, -44.2, -53.4, -60.5, -17.5, -17.7, -42.4, -54.7, -56.2, -60.1, -55.7, -49.4, -40.3, -62%"
same,growth,"25 µM, runs of 1993","active: -51.8, -49.8, -14.5, -25.5, -59.3, -21.1, -55.1, -35.5, 0.421, -25.3, -55.7, -52.3, -62.2, -27.1, -39.9, 4.77, -20.3, -59.7, -67.3, -53.3, -0.268, -4.51, -18, -7.55, -57.7, -62.9, -78.2, -17.7, -62.1, -57.1, -51.9, -4.26, -57.5, -32, -37, -48.7, -51.5, -63.6, -54.7, -28.9, -60.7, 4.07, -29.9, -45%"
same,growth,"25 µM, runs of 1994","inactive: 13.2%, 101% and active: -70.5, -22.3, -48.9 (2×), 2.45, -47.7, -46.1, -3.59, -15.3, -15.2, -66.9, -11.4, -16.1, -15.1, -6.87, -74.6, -14.7, -24.9, -38.4, -40.2, 7.03, -11, -42.2, -12.9, -25.3, -17.7, -48.4, -19.9%"
same,growth,"25 µM, runs of 1995","active: -31, -19.2, -39.8, 3.18, -33.3, -15.9, -18.1, -15.5, -3.79, -23.4, 3.27, -7.81, -12.1 (2×), -11.5, -34.3, -28.9, -47.6, -44.4, -43.6, -55.8, -3.14, -8.06, -42.6, -32.8, -42.1, -42.4, -23.2, 3.93, -51.2, -64, -53.7, -67.3, -46.9, -39.2, -69.2, -50% and inactive: 10.9%"
same,growth,"25 µM, runs of 1996","active: -49.7, -36.8, -58.9, -5.78, -10.1, -47.6, -20.5, -6.3, -41, -40, -56, -38.8, -32.1, -42.7, -13.2, -9.13, -48.7, -20, -7.03, -5.24, -27.1, -7.31, -10.5, -9.03, -25.7, -50.6, -21.8, -85.5, -56.4, -2.45, -50.2, -41.6, -34.5, -20.2, -58.4, -36, -68.4, -61.4, -61.3, -37.9, -26.5, -34.4, -29.3, -52.8, -39.5, -23.1, -46.3, -45.4, -17.8, 7.97, -29.2, -34.8, -61.5, -23.9, -56.2, -57.9% and inactive: 92.9%, 40.7%"
same,growth,"25 µM, runs of 1997","active: -25.7, -36.7, -58.1, -48.1, -32.4, -67.9, -64.3, -34.8, -68.5, -60, -27, -51.4, -56, -27.1, -41.4, -42.9, -76.3, -82.5, -18.5, -65, -54.4, -49.4, -70.2, -33.5, -48.4, -66.2, -49.5, -7.3, -25.9, -32.7, -67.4, -72.9, -67.2, -69.7, -45.9, -66.6, -49.2, -32, -20.3, -58.6, -51.9, -40.4, -39.8%"
same,growth,"25 µM, runs of 1998","active: -33.9, -31.3, -18.4, -27.5, -45.3, -48.4, -55, -46.4, -69.4, -39.7, -50.2, -80.4, -71.5, -3.59, -29.6, -31.4, 4.02, -58.4, -22.8, -35.4, -35.8, -3.06, -16, -1.53%"
same,growth,"25 µM, runs of 1999","active: -32.1, -37.2, 6.04, -0.743, -16.2, -11.8, -17.4, 1.86, -51.4, -4.55, -41.7, -96.7, 5.41, 0.496, 5.94, -100, -68.2, -80.5%"
same,growth,"25 µM, runs of 2000","active: -2.86, -100, -47.8, -43.1%"
